In PMC10668032:
This is one part of the list. At the low end of the ranking the order means little.

Target: SIX1 homeodomain (reference allele) (UniProt Q15475)
Assay: universal protein binding microarray
Conditions: Universal all-10-mer PBM (8x60K, AMADID 030236), 300 nM GST-tagged protein, Alexa Fluor 488 anti-GST; buffer, salt, pH and temperature not stated; high values mean tight binding; most listed sequences are background and not binding sites; double strand, one strand shown

| Sequence | binding signal [E-score] |
| --- | --- |
| CCCTTCAC | -0.0811 |
| CCAGTAAG | -0.0864 |
| GCCGGGTA | 0.0702 |
| GGTTGCCA | -0.135 |
| AATCACGT | -0.0538 |
| CATCCCGC | -0.0472 |
| AGTTGGAC | -0.257 |
| GGTAGCTA | -0.0338 |
| ATATCCCC | 0.457 |
| ATTGGGAC | -0.171 |
| ACAGACAA | -0.103 |
| CACCTTTC | -0.118 |
| GGAAATCA | -0.14 |
| ACGTCTTA | 0.0566 |
| CCTAGTCG | -0.0898 |
| CACGGCAG | -0.0382 |
| ATACGTCA | 0.196 |
| CATTGCTC | -0.141 |
| CGGCAGCA | -0.149 |
| GAGTCAAA | -0.154 |
| CCCCAGGG | 0.0362 |
| AACACGTC | -0.241 |
| CTTCTTAC | -0.0869 |
| CATGATTA | -0.108 |
| GCACGTCA | -0.379 |

| Sequence | binding signal [E-score] |
| --- | --- |
| TCAGATAA | 0.21 |
| CGACAAAC | -0.15 |
| AGCTGTGG | -0.135 |
| AGTCATTA | -0.285 |
| CAGATCAA | 0.298 |
| AGTCTAAT | -0.144 |
| AGACTGCG | -0.0794 |
| GTAGATAA | 0.0864 |
| CTCAGCAG | -0.095 |
| CACAGGTC | -0.154 |
| GATGGTAA | 0.0563 |
| TGGGACAA | -0.206 |
| AGTGGGAA | -0.0951 |
| CGAAAACA | -0.193 |
| AAACGGCC | -0.126 |
| CATCCACC | 0.0673 |
| GCATCGTA | 0.066 |
| ACGATCCG | 0.425 |
| CTCTCCGC | -0.00954 |
| AAAGTTGA | -0.208 |
| CGGCGGCA | -0.198 |
| AACTGCGG | -0.105 |
| CGTAGATA | 0.23 |
| AACCGTAG | -0.219 |
| CTGCACAC | -0.159 |

| Sequence | binding signal [E-score] |
| --- | --- |
| ATCGTCCC | 0.232 |
| CCTGCAGA | 0.0069 |
| GCCGCTGA | -0.0861 |
| CCATATGA | 0.0499 |
| CAATTACG | -0.186 |
| AATTATCA | 0.0693 |
| TCGACACA | -0.062 |
| AATGGCAT | 0.0394 |
| GAACCGAA | -0.182 |
| AGCAGATA | 0.319 |
| GAGTGATC | 0.336 |
| CTAAGGGC | -0.307 |
| CGTTACCC | 0.0398 |
| GAAACCAC | 0.206 |
| GTTCGCGA | -0.0837 |
| TAAGCCCA | -0.133 |
| CATGGTCC | -0.00628 |
| ACCGTTCG | 0.145 |
| AAAAGCAA | -0.315 |
| AGCAAACA | -0.195 |
| ACCTCTGC | -0.0615 |
| GCCACCAA | -0.171 |
| AAGGTGCA | -0.00721 |
| ATCGAAGG | 0.179 |
| CTGGGGGC | -0.238 |

| Sequence | binding signal [E-score] |
| --- | --- |
| AAGTGAAG | -0.163 |
| GTAGATCA | 0.29 |
| AACTACTA | -0.011 |
| ACATTTGA | -0.118 |
| TCTGTGAA | 0.0513 |
| AAAGCCCC | -0.171 |
| GGCTACTA | 0.0834 |
| ACTAGTTA | 0.0011 |
| AAGTCCCA | -0.296 |
| AGTACGTA | 0.0991 |
| CTGCTAAA | -0.117 |
| GTAAGGAA | -0.174 |
| ACAGTTAG | -0.164 |
| GAATGGCA | -0.186 |
| AGAAACAT | -0.131 |
| CCGGACCA | -0.0433 |
| AGATCAGG | 0.284 |
| CCCTCAGG | -0.0447 |
| ACCAGCCT | 0.106 |
| CCCAAATC | -0.171 |
| CCCGGCAG | -0.0973 |
| TCAGTACA | -0.0309 |
| ATCTCAAG | 0.215 |
| GTTCTTGA | -0.102 |
| TACAGTGA | 0.00292 |

| Sequence | binding signal [E-score] |
| --- | --- |
| GGAATTCA | -0.154 |
| TCCTACCA | -0.027 |
| CGCCGTAG | -0.188 |
| GCTCGTTA | -0.0541 |
| ATTTTACC | -0.038 |
| AGGCTCAG | 0.0998 |
| ACTACCGA | -0.0724 |
| CAAGGCAG | -0.175 |
| GTTATACA | 0.151 |
| CAAATTGA | -0.154 |
| AACTATTA | -0.13 |
| GCTCGACC | -0.0828 |
| AGGTTCCC | -0.255 |
| CTAAGTCA | -0.154 |
| CTACGCGA | 0.0205 |
| AGACCAAT | -0.144 |
| ACATCTAA | -0.0234 |
| CTGTGCTC | 0.0398 |
| ACAGTAGG | -0.096 |
| TCAACTGA | 0.0209 |
| ATTTTCGC | -0.145 |
| GCATAAGC | -0.173 |
| GGGCGAAC | -0.0928 |
| AAAGGTAC | -0.113 |
| CGCGCAGA | 0.0738 |

| Sequence | binding signal [E-score] |
| --- | --- |
| GACTGAAC | -0.134 |
| CACTGAGC | -0.0612 |
| CTCGATGA | 0.165 |
| AAAAATCG | -0.241 |
| CACACATA | -0.0524 |
| CTACTCTA | 0.11 |
| CTCGCTTA | 0.0595 |
| ATAATCTC | 0.186 |
| CAGCCACA | -0.0704 |
| AAAAACCA | -0.06 |
| ATAGCGGC | 0.194 |
| AGGCCCTG | -0.261 |
| AATCTAGT | -0.121 |
| CCTGTGCA | -0.141 |
| CAACGTCC | -0.316 |
| AGGCACCA | -0.053 |
| ACGACCCG | 0.0857 |
| AGCTTCGA | -0.101 |
| CATTTGTA | -0.0461 |
| AAAGGCCA | -0.12 |
| GTTAGAGA | -0.201 |
| CGGGCGCA | -0.0953 |
| AAGAAACG | -0.0137 |
| ACAACATG | -0.0441 |
| ACATGGGC | -0.271 |

| Sequence | binding signal [E-score] |
| --- | --- |
| ATGTGCCA | -0.115 |
| ACTCAAGC | -0.174 |
| AATAGTGA | -0.118 |
| CGAAACCA | 0.165 |
| CCTTACGC | -0.164 |
| AAAGCCGT | -0.0418 |
| GGCGTGTA | 0.141 |
| CGCTGAAG | -0.113 |
| AACCCTGT | -0.0754 |
| ATCGGAAC | 0.132 |
| ACACGGCA | 0.0118 |
| ATGTTCCC | -0.0773 |
| AGCAAGTC | -0.256 |
| GGGGGAGA | 0.121 |
| GAGGAGAC | -0.0944 |
| AGTGTTAT | 0.0606 |
| TCCACAAA | 0.0353 |
| GCCTTCGA | -0.133 |
| ACGTAACC | -0.216 |
| CCGGAAAA | -0.151 |
| GGGCTAAC | -0.164 |
| AAGCGTTC | -0.266 |
